Among all 46,000 compounds or so, about 60 (0.1%) were called active. Not shown: some 3% with an inconclusive outcome. Calls follow the shape of the dose curve; as a rule, active = well fitted inhibition curve with a large enough effect; inconclusive = small, poorly fitted or top-dose-only effect; inactive = no such curve, though single readings can be large or run the other way. The list shows a part of the results.
assay: Primary qHTS assay for Inhibitors of ovarian cancer metastasis using an organotypic tumor microenvironment (TME) model.; also: nearly all actives have a fitted effect of over 65% in size;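 as to activity change, negative = inhibition: plate controls were DMSO wells for no effect and tomatine positive control wells for full effect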; conditions: SKOV3ip1-GFP adhesion/invasion on 3D omental model, fluorescence; series mostly up to 45.8 µM; activity change, negative = inhibition: at the top concentration
In short: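 Primary human omental fibroblast/mesothelial 3D culture pre-formed 48 h. SKOV3ip1-GFP cells added with compounds (0.36-46 umol/L), incubated 2 h RT/16 h 37 C, fixed; GFP cells quantified at 488/509 nm.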

outcome, inactive:
CCN1CCN(c2ccc(NS(=O)(=O)c3c(C)nc4sccn4c3=O)cc2Cl)CC1, CCOc1ccccc1-n1nnc(-c2nc(-c3ccccc3)no2)c1N, CCOC(=O)c1cccc(NC(=O)C2CCN(S(=O)(=O)c3ccc4c(c3)oc(=O)n4C)CC2)c1, Cc1ccc(Cn2nnc(C(=O)Nc3ccc(F)c(F)c3)c2N)cc1, CCOC(=O)N1CCc2c(sc3c2c(=O)n(CCc2ccccc2)c(=O)n3Cc2ccc(F)cc2)C1, Cc1ccccc1-c1nn2c(=O)cc(CN3CCN(C(=O)c4ccc(C(C)(C)C)cc4)CC3)nc2s1, CCOC(=O)c1cccc(NC(=O)C(C)n2c(C)c3cnn(-c4ccccc4)c(=O)c3c2C)c1 (stereo unspecified), CCCSCCCNC(=O)c1ccc(Cn2c(=O)c3cccn3c3cccnc32)cc1, COc1ccc(Cl)cc1NC(=O)CCc1c(C)nc2c(c1C)c(=O)n(C)c(=O)n2C, Cc1ccc(NC(=O)CN(C)S(=O)(=O)c2ccc3nc(C)sc3c2)c(C)c1, CCc1ccccc1NC(=O)Cn1nc(C(F)(F)F)c2c1CCCC2, Cc1cc(C)c(NC(=O)CCn2c(=O)c3cccn3c3cccnc32)c(C)c1, N#CC1=C(N)N(c2cccc(Cl)c2)C2=C(C(=O)CCC2)C1c1cc(CN2CCOCC2)cs1 (stereo unspecified), CC(C)c1ccc(NC(=O)c2ccc(F)c(S(=O)(=O)N3CCc4ccccc4C3)c2)cc1, Cc1nc(-c2ccccc2)sc1CCNC(=O)C(=O)Nc1ccc2c(c1)OCO2, COc1cccc(OCCSc2nc(C)c(Cc3ccccc3)c(=O)[nH]2)c1

Activity change, negative = inhibition, inactive:
Cc1ccc(C(C)(C)C)c(OCC(=O)NCCc2nc3ccccc3[nH]2)c1 0.478%, CN(Cc1ccccc1)S(=O)(=O)c1ccc(F)c(C(=O)Nc2cccc(Cl)c2Cl)c1 -3.1%, COc1ccc(-c2nc3sc(CCNC(=O)c4cc(Cl)ccc4OC)c(C)n3n2)cc1 43.1%, Cc1ccccc1NS(=O)(=O)c1ccc(Br)s1 9.54%, Cc1c(/C=C(\C#N)C(=O)Nc2cccc(Cl)c2)c2ccccc2n1Cc1ccccc1Cl -2.43%, CCOc1ccc(C2=NC(c3cccs3)=Nc3ccc(C(C)C)cc3N2)cc1 -5.2%, Cc1cccc(CC2C(=O)Nc3ccccc32)c1 (stereo unspecified) -13.3%, CCN(CC)c1cc2c(cc1F)c(=O)c(S(=O)(=O)c1cc(C)ccc1C)cn2Cc1ccccc1 -0.204%, COc1ccccc1N1CCN(c2ncnc3c2cnn3C)CC1 -5.88%, CCOc1ccc(C2c3cc(OCC)c(OCC)cc3CC(=O)N2c2ccc(C(=O)O)cc2)cc1OCC (stereo unspecified) -9.37%, CCc1ccc(C(=O)COC(=O)C(Cc2c[nH]c3ccccc23)NC(=O)c2ccc(Br)cc2)cc1 (stereo unspecified) 2.19%, COc1ccc(S(=O)(=O)N(CCc2ccccc2)CC(=O)Nc2cccc(OC)c2)cc1 -0.847%, CCOc1ccc(C2CC(=O)c3c([nH]c(C(=O)OCc4ccccc4)c3C)C2)cc1 (stereo unspecified) -6.17%, Cc1nc2ccc(S(=O)(=O)N(C)CC(=O)Nc3ccc(Br)c(C)c3)cc2s1 9.32%, CCc1cccc(C)c1NC(=O)Cn1ccn(-c2ccc(F)cc2)c(=O)c1=O 6.96%, COc1ccc(CCN2C(=O)c3oc4ccc(F)cc4c(=O)c3C2c2ccc(C(C)(C)C)cc2)cc1 (stereo unspecified) 11.9%, COc1ccc(S(=O)(=O)N2CCC(n3c(C(F)(F)F)nc4cccnc43)CC2)cc1OC -16.6%, COc1ccc(C(=O)CN2C(=O)N(c3ccc(C(C)=O)cc3)S(=O)(=O)c3ccccc32)cc1 -17.3%, O=C(CSc1nc(-c2ccccc2)no1)N1CCCCC1 -4.6%, O=C1CC(c2ccccc2)Cc2[nH]c(=O)c(C(=O)Nc3cccc(Cl)c3)cc21 (stereo unspecified) -23%, COC(=O)c1ccc(NC(=O)CN2CCN(c3ccc(Cl)cc3)CC2)cc1 2.84%, COc1ccc(NC(=O)c2cn(-c3ccccc3)nc2-c2ccc(C)cc2)cc1 2.79%, Cc1ccc(N(C)C(=O)C2CCN(S(=O)(=O)c3ccc4c(c3)CCCN4C(=O)C3CCC3)CC2)cc1 2.14%, CCOc1ccccc1-n1cc2c(c1-c1ccc(OC)cc1)c(=O)n(C)c(=O)n2C 16.8%, COc1ccc(NC(=O)c2ccc3c(c2)CCN3S(=O)(=O)c2ccc(C)cc2)cc1Cl 8.18%, CCCOC(=O)CSc1nnc2ccc3ccccc3n12 -11.8%, CN1CCCC(n2nc(Cc3ccc(Cl)cc3)c3ccccc3c2=O)CC1 (stereo unspecified) 1.1%, Cc1c(Cl)cccc1NC(=O)CN1C(=O)COc2ccc(S(=O)(=O)Nc3ccccc3)cc21 43.2%, COc1cc(NC(=O)CSc2nc3nc(C)c(Cc4ccc(C)cc4)c(C)n3n2)cc(OC)c1 -12.9%, CC(C)NS(=O)(=O)c1ccc2nc(NC(=O)c3cncc(Br)c3)sc2c1 1.85%, Clc1cccc(CNc2cc(-c3ccccc3)nc3nncn23)c1 -4.26%, OCCN1CCN(C(c2ccccc2Cl)c2sc3nc(-c4ccco4)nn3c2O)CC1 (stereo unspecified) -3.06%, Cc1cccc(N2C(=O)CS(=O)(=O)C23C(=O)N(Cc2c(F)cccc2Cl)c2ccccc23)c1 (stereo unspecified) 4.66%, Cc1cccc(N2CCn3c2nc2c3c(=O)n(CCc3ccccc3)c(=O)n2C)c1 0.642%, CC(C)N1C(=O)C(O)(c2c[nH]c3ccccc23)c2ccccc21 (stereo unspecified) -23.3%, COc1cccc(-c2cn3c(n2)sc2cc(C(=O)NCCc4ccc(OC)c(OC)c4)ccc23)c1 -3.2%, CCCS(=O)(=O)N1CC(=O)N(c2cc(C)ccc2C)C(C)(C(=O)NC2CCCCCC2)C1 (stereo unspecified) -4.96%, Cc1ccc2onc(CNC(=O)NCc3cccc(Cl)c3)c2c1 4.87%, CCOc1ccc(OCC)c(NC(=O)CC(C)n2nc(C)cc2C)c1 (stereo unspecified) -1.24%, O=C(O)CCCNc1cc(N2CCN(C3CCCCC3)CC2)c2noc3c2c1C(=O)c1ccccc1-3 0.49%, CCOc1ccc(-c2cc(C(=O)Nc3ccc(NC(C)=O)cc3)no2)cc1 -7.02%, Cc1cc(N)c(-n2cc3c(c2-c2ccc(Br)cc2)c(=O)n(C)c(=O)n3C)cc1C 185%, Cc1cc(C)cc(Oc2coc3cc(OCC(=O)NC4CCCCC4)ccc3c2=O)c1 -6.36%, CCOc1ccc(-n2nc(CO)c(C(=O)NCCCc3ccccc3)n2)cc1 -4.76%, CC(=O)Nc1ccc(S(=O)(=O)N2CCC(c3nnnn3-c3ccccc3)CC2)cc1 34.8%, Cc1ccc(/C=N/NC(=O)c2ccccc2Oc2ccccc2)o1 5.47%, Cc1ccc(CN(C(=O)c2ccccc2F)c2ccccn2)o1 12%, O=C(c1cccn2c(=O)c3cc(Cl)ccc3nc12)N1CCN(c2ccccc2F)CC1 1.97%, Nc1nonc1-c1nc2ccccc2n1Cc1cccc(Cl)c1 -0.933%, CCOc1ccc(NC(=O)CC2C(=O)N(c3ccc(C)cc3)C(=O)N2CCC2=CCCCC2)cc1 (stereo unspecified) -17.9%, COc1ccc(CCNC(=O)c2c(O)nc3ccccn3c2=O)cc1 11.7%, CCOC(=O)c1ccccc1NC(=O)CSc1nc(=O)[nH]c2c1CCC2 9.8%, CCOc1ccc(C(=O)Nc2cccc(C(=O)OCc3cc(=O)n4nc(C5CC5)sc4n3)c2)cc1 0.649%, COc1ccc(Cl)cc1NC(=O)Cn1cc(C(=O)c2ccc(C)cc2)c(=O)c2ccc(C)nc21 2.7%, Cc1ccc(NC(=O)CCSc2nc(-c3ccco3)cc(C(F)(F)F)n2)cc1F 3.99%, COc1ccc2oc(=O)c(C(=O)Nc3ccc(C(=O)O)cc3)cc2c1 6.32%, Cc1ccn2c(=O)c(C(=O)NCCCN3CCCCC3C)c(O)nc2c1 (stereo unspecified) -8.3%, FC(F)(F)Oc1ccc2c(c1)NC(c1ccncc1)=NC(c1cccs1)=N2 3.25%, O=C(COc1ccc(Cl)cc1)Nc1ccc(C(=O)OCc2cc(=O)n3ccsc3n2)cc1 6.74%, C=Cc1ccc(Cn2c(C)c(CNCCc3ccccc3C)c(C(=O)O)c2C)cc1 -15.3%, CCOC(=O)N1CCN(Cc2nc3cc(NC(=O)c4ccc(OC)cc4)ccc3n2C(C)C)CC1 -17.1%, COc1ccc(OCC(=O)Nc2nnc3n2CCS3)cc1 -4.18%, CC(=O)c1ccc(NC(=O)CCCSc2nc(-c3ccco3)cc(C(F)(F)F)n2)cc1 -17.1%, CCc1ccc(NC(=O)CSc2nc3ccccc3c(=O)n2CCNC(C)=O)cc1 -3.62%, Cc1ccc(NC(=O)C(C)n2nnc3sc4c(c3c2=O)CCCC4)cc1Cl (stereo unspecified) -7.32%, C=CC[N+]1([C@H]2C[C@H]3[C@@H]4CC[C@H]5C[C@H](O)[C@@H](N6CCOCC6)C[C@]5(C)[C@@H]4CC[C@]3(C)[C@H]2OC(C)=O)CCCC1 -14.1%, Cc1c(Cl)cccc1NC(=O)c1ncoc1-c1ccco1 -8.08%, COc1ccccc1NC(=O)CCN1CCCCC1 -6%, CCOc1ccc(OCC)c(NC(=O)C2CCN(c3nnc(-n4cccc4)s3)CC2)c1 -7.53%, CCOC(=O)c1cccc(Nc2cc(-c3ccccc3)ncn2)c1 -8.7%, Cc1ccc(C(C)(O)c2nc3ccccc3s2)c(C)c1 (stereo unspecified) -21.3%, CCOC(=O)c1c(C)[nH]c(CCC(=O)NCc2ccccc2Cl)c1C -30%, Cc1c(Cl)cccc1NC(=O)c1ccc2snnc2c1 0.597%, Cc1cccc(C(=O)NCC(=O)OCc2cc(=O)n3nc(C4CCCCC4)sc3n2)c1 4.1%, Cc1cccc(N2CCN(S(=O)(=O)c3ccc4[nH]c5c(c4c3)CCCCC5)CC2)c1C -7.22%, CCOC(=O)c1cccc(NC(=O)CC2C(=O)N(c3ccc(OC)cc3)C(=O)N2C2CCCC2)c1 (stereo unspecified) 3.58%, COc1ccc(NC(=O)CCCN2C(=O)CCn3nc(-c4cn(C)c5ccccc45)cc32)cc1OC 6.25%, Cc1ccc(N(C)C(=O)C2CCN(S(=O)(=O)c3c(C)noc3/C=C/c3c(C)cc(C)cc3C)CC2)cc1 -9.34%, CCN(CC)C(=O)Cn1nnc2sc(-c3ccccc3)cc2c1=O 0.317%, COc1cc2c(cc1OC)C(COc1ccc3c(C)cc(=O)oc3c1)N(C(=O)c1cc(Cl)ccc1OC)CC2 (stereo unspecified) 2.86%

Reference: PubChem BioAssay AID1963576 (National Center for Advancing Translational Sciences (NCATS), 2024)
